# Experimental data from the supplement of paper PMC10037445.
# Values joined by “and” are separate entries in the source; they are usually repeats but may differ in a detail not shown here. Equal entries are not always repeated. ± gives the standard deviation of the averaged measurements. Whole data set: some 2,900 compounds, median “IRF Lucia reporter activity, fold change vs agonist alone” near 0.9, cut for the highest 2% near 2.8. The list shows a part of the results.
# Assays:
# RAW-Dual [1] = assay: IRF Lucia reporter activity, fold change vs agonist alone; cytotoxicity flag (confluency mask): not cytotoxic; higher = enhanced IRF activity
# Outline: (§1)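 RAW-Dual macrophages (50,000 cells/well in DMEM, 384-well plates) received 50 nL of library stock by pin tool, then a PRR agonist 1 h later, and were kept at 37 °C, 5% CO2. After 20 hours, supernatant was read for IRF by QuantiLuc luminescence and for NF-κB by QuantiBlue absorbance at 620 nm. Reporter activity is fold change over agonist-alone wells. Cytotoxic wells had IncuCyte confluency below 70% of agonist controls in both mask sets.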
# RAW-Dual [2] = assay: IRF Lucia reporter activity, fold change vs agonist alone; higher = enhanced IRF activity; conditions: agonist: MPLA (TLR4) […]
# Outline: as §1
# RAW-Dual [3] = assay: IRF Lucia reporter activity, fold change vs agonist alone; cytotoxicity flag (confluency mask): cytotoxic (confluency <70% of control); higher = enhanced IRF activity
# Outline: as §1
# [4] = agonist: 3'3'-cGAMP (STING) 10 ug/mL
# [5] = library stock concentration (final ~1000-fold dilution): 10 mM, cytotoxicity flag (confluency mask): not cytotoxic
structure (smiles),measurement,setting,value
COC(=O)c1ccc(O)c(NC(=O)COc2ccc(C34CC5CC(CC(C5)C3)C4)cc2)c1 (library stock concentration (final ~1000-fold dilution): 10 mM),IRF Lucia reporter activity,RAW-Dual [1]; [4],0.925
same,IRF Lucia reporter activity,RAW-Dual [1]; agonist: LPS (TLR4) 0.1 ug/mL,1.14
CN1c2c(nc(N)[nH]c2=O)NC[C@@H]1CNc1ccc(C(=O)N[C@@H](CCC(=O)O)C(=O)O)cc1 (library stock concentration (final ~1000-fold dilution): 10 mM),IRF Lucia reporter activity,RAW-Dual [1]; [4],0.837
same,IRF Lucia reporter activity,RAW-Dual [1]; agonist: LPS (TLR4) 0.1 ug/mL,0.839
CCOc1cn(-c2ccc(F)cc2C)nc1C(=O)Nc1ccc(Oc2ccnc3cc(OC)c(OC)cc23)c(F)c1 (library stock concentration (final ~1000-fold dilution): 10 mM),IRF Lucia reporter activity,RAW-Dual [1]; [4],1.02
same,IRF Lucia reporter activity,RAW-Dual [1]; agonist: LPS (TLR4) 0.1 ug/mL,0.575
COCc1ccc(-c2ccc3ncc(C(N)=O)c(NC(C)C4CCOCC4)c3c2)cn1 (stereo not given) (library stock concentration (final ~1000-fold dilution): 10 mM),IRF Lucia reporter activity,RAW-Dual [1]; [4],0.252
same,IRF Lucia reporter activity,RAW-Dual [1]; agonist: LPS (TLR4) 0.1 ug/mL,0.916
O=c1cc(-c2ccc(O)cc2)oc2c(C3OC(CO)C(O)C(O)C3O)c(O)cc(O)c12 (stereo not given) (library stock concentration (final ~1000-fold dilution): 10 mM),IRF Lucia reporter activity,RAW-Dual [1]; [4],0.992
same,IRF Lucia reporter activity,RAW-Dual [1]; agonist: LPS (TLR4) 0.1 ug/mL,1.08
COc1cc(N2CCN(C)CC2)ccc1Nc1nccc(-c2cn(C)c3cnccc23)n1 (library stock concentration (final ~1000-fold dilution): 10 mM),IRF Lucia reporter activity,RAW-Dual [1]; [4],0.0231
same,IRF Lucia reporter activity,RAW-Dual [1]; agonist: LPS (TLR4) 0.1 ug/mL,0.154
COc1cc(N2CCN(C)CC2)ccc1Nc1nccc(-c2cn(C)c3cnccc23)n1,IRF Lucia reporter activity,RAW-Dual [2]; [5],0.246
COC12C(COC(N)=O)C3=C(C(=O)C(C)=C(N)C3=O)N1CC1NC12 (stereo not given) (library stock concentration (final ~1000-fold dilution): 10 mM),IRF Lucia reporter activity,RAW-Dual [1]; [4],0.783
same,IRF Lucia reporter activity,RAW-Dual [1]; agonist: LPS (TLR4) 0.1 ug/mL,1.35
COC(=O)C1=C(C)NC(C)=C(C(=O)OC)C1c1ccccc1[N+](=O)[O-],IRF Lucia reporter activity,RAW-Dual [2]; [5],0.406
COC(=O)C1=C(C)NC(C)=C(C(=O)OC)C1c1ccccc1[N+](=O)[O-] (library stock concentration (final ~1000-fold dilution): 10 mM),IRF Lucia reporter activity,RAW-Dual [1]; [4],0.606
same,IRF Lucia reporter activity,RAW-Dual [1]; agonist: LPS (TLR4) 0.1 ug/mL,0.554
CN1CCN(CCCN2c3ccccc3Sc3ccc(C(F)(F)F)cc32)CC1.Cl.Cl,IRF Lucia reporter activity,"RAW-Dual [2]; library stock concentration (final ~1000-fold dilution): 10 mM, cytotoxicity flag (confluency mask): cytotoxic (confluency <70% of control)",1.81
CN1CCN(CCCN2c3ccccc3Sc3ccc(C(F)(F)F)cc32)CC1.Cl.Cl (library stock concentration (final ~1000-fold dilution): 10 mM),IRF Lucia reporter activity,RAW-Dual [3]; [4],0.788
same,IRF Lucia reporter activity,RAW-Dual [3]; agonist: LPS (TLR4) 0.1 ug/mL,0.737
O=c1nc(N2CCOCC2)oc2c(-c3cccc4c3sc3ccccc34)cccc12 (library stock concentration (final ~1000-fold dilution): 10 mM),IRF Lucia reporter activity,RAW-Dual [1]; [4],0.298
same,IRF Lucia reporter activity,RAW-Dual [1]; agonist: LPS (TLR4) 0.1 ug/mL,1.03
CN(C)CC(c1ccc(O)cc1)C1(O)CCCCC1.O=C(O)CCC(=O)O (stereo not given),IRF Lucia reporter activity,RAW-Dual [2]; [5],1.02
CN(C)CC(c1ccc(O)cc1)C1(O)CCCCC1.O=C(O)CCC(=O)O (stereo not given) (library stock concentration (final ~1000-fold dilution): 10 mM),IRF Lucia reporter activity,RAW-Dual [1]; [4],1.09
same,IRF Lucia reporter activity,RAW-Dual [1]; agonist: LPS (TLR4) 0.1 ug/mL,0.986
O=C(O)CSc1cc(NS(=O)(=O)c2ccc(Br)cc2)c2ccccc2c1O,IRF Lucia reporter activity,RAW-Dual [2]; [5],1.42
O=C(O)CSc1cc(NS(=O)(=O)c2ccc(Br)cc2)c2ccccc2c1O (library stock concentration (final ~1000-fold dilution): 10 mM),IRF Lucia reporter activity,RAW-Dual [1]; [4],0.391
same,IRF Lucia reporter activity,RAW-Dual [1]; agonist: LPS (TLR4) 0.1 ug/mL,1.26
Cc1cc(C(=O)O)n[nH]1,IRF Lucia reporter activity,RAW-Dual [2]; [5],1.09
Cc1cc(C(=O)O)n[nH]1 (library stock concentration (final ~1000-fold dilution): 10 mM),IRF Lucia reporter activity,RAW-Dual [1]; [4],1.03
same,IRF Lucia reporter activity,RAW-Dual [1]; agonist: LPS (TLR4) 0.1 ug/mL,1.25
C#CC1(O)CCC2C3CCC4=Cc5oncc5CC4(C)C3CCC21C (stereo not given) (library stock concentration (final ~1000-fold dilution): 10 mM),IRF Lucia reporter activity,RAW-Dual [1]; [4],0.976
same,IRF Lucia reporter activity,RAW-Dual [1]; agonist: LPS (TLR4) 0.1 ug/mL,0.805
NCCCCC(NC(CCc1ccccc1)C(=O)O)C(=O)N1CCCC1C(=O)O (stereo not given) (library stock concentration (final ~1000-fold dilution): 10 mM water),IRF Lucia reporter activity,RAW-Dual [1]; [4],1.32
same,IRF Lucia reporter activity,RAW-Dual [1]; agonist: LPS (TLR4) 0.1 ug/mL,0.679
NCCCCC(NC(CCc1ccccc1)C(=O)O)C(=O)N1CCCC1C(=O)O (stereo not given),IRF Lucia reporter activity,"RAW-Dual [2]; library stock concentration (final ~1000-fold dilution): 10 mM water, cytotoxicity flag (confluency mask): not cytotoxic",1.47
Nc1ccc(O)c(C(=O)O)c1 (library stock concentration (final ~1000-fold dilution): 10 mM),IRF Lucia reporter activity,RAW-Dual [1]; [4],0.974 and 1.02
same,IRF Lucia reporter activity,RAW-Dual [1]; agonist: LPS (TLR4) 0.1 ug/mL,0.961 and 1.01
Nc1ccc(O)c(C(=O)O)c1,IRF Lucia reporter activity,RAW-Dual [2]; [5],1.07 ± 0.12
CNC(=O)c1ccccc1Oc1nc(Nc2cc(OC)c(OC)c(OC)c2)ncc1Br (library stock concentration (final ~1000-fold dilution): 10 mM),IRF Lucia reporter activity,RAW-Dual [1]; [4],0.23
same,IRF Lucia reporter activity,RAW-Dual [1]; agonist: LPS (TLR4) 0.1 ug/mL,0.394
CS(=O)(=O)c1cccc(CC(NC(=O)c2c(Cl)cc3c(c2Cl)CCN(C(=O)c2ccc4ccoc4c2)C3)C(=O)O)c1 (stereo not given) (library stock concentration (final ~1000-fold dilution): 10 mM),IRF Lucia reporter activity,RAW-Dual [1]; [4],1.14
same,IRF Lucia reporter activity,RAW-Dual [1]; agonist: LPS (TLR4) 0.1 ug/mL,1.2
CS(=O)(=O)c1cccc(CC(NC(=O)c2c(Cl)cc3c(c2Cl)CCN(C(=O)c2ccc4ccoc4c2)C3)C(=O)O)c1 (stereo not given),IRF Lucia reporter activity,RAW-Dual [2]; [5],1.15
